According to patent US5998368A, “Derivatives of structurally modified VIP and pharmaceutical compositions containing them” (Yeda Research and Development Co. Ltd., priority 1991, dated 1999):
At least one peptide structure holds a part that was inferred or is arguable (an end, a ring closure or a residue). Some entries repeat one wording, which the source may state once for all of them. Square brackets hold non-standard residues; d marks the D form. Peptide text beside a SMILES is read from it. * marks the point of attachment. Stearoyl = CCCCCCCCCCCCCCCCCC(=O)*; Nle = CCCC[C@H](N)C(=O)O

Each compound was assayed on penile reflexes in castrated rats (assay: Penile reflexes (E2, cups) in castrated rats after transdermal application). Conditions: Table 3, topical, 7 μg in 5% Sefsol and 20% isopropanol, 45 min session.
Assay type: in vivo, rat
Experimental: (a) The ointment composition was: 31.2 μl 10% Sefsol 318™ (glyceryl monocaprylate), and either 0.24 mg stearoyl-VIP in 31.2 μl DMSO (1-2μl per animal) (SEFS in FIG. 1) or 0.24 rig stearoyl-Nle^17 -VIP in the above (SEFS* in FIG. 1).
(b) For other analogs described hereinafter 10 μl of solution were used per animal containing 7 μg of active material in a vehicle containing 5% Sefsol and 20% isopropanol.
In a further set of experiments the effects of stearoyl-VIP compounded with Sefsol 318™ were compared with those of stearoyl-Nle^17 -VIP compounded with Sefsol 318™.
In a second type of biological experiments the effects of compositions containing other modified VIP conjugates compounded with Sefsol 318™ were tested.
Rats with reduced sexual potential due to castration were employed. Male rats (250-300 g, about three month old) were kept in a 12-hours light, 12-hours dark cycle. Experiments were always conducted within the dark period, 2-6 hours after the onset of darkness. Male rats were castrated and given partial testosterone replacement (4 μg/100 g body weight) in the form of daily injection for 14-21 consecutive days (the duration of the experiment). Experiments were conducted one week following surgery.
A procedure was utilized that employed the technique that measures sexual reflexes in the penis, which enables direct evaluation of penile erection following transdermal administration of the drug. Successful reproduction depends, in large part, upon the precise execution of temporally organized, functionally related behavioural units. In these experiments, we concentrated on the final stages of the erection process (reddening of the penis accompanied by its distension and extension leading to complete erection) and monitored the latency time to the first E2 and first cup(^14).
For testing, each animal was restrained in a supine position with the anterior portion of its body enclosed in a loosely fitting cylinder (7 cm diam). After a belt was secured around the torso, the glans penis was extruded from its sheath and gently held perpendicular to the abdomen by a thin wooden applicator positioned at the posterior of the penis. The legs of the male were held by the observer and this position was maintained throughout the test period. The duration of the session was 45 minutes. The latencies and numbers of E2 and cups were recorded and plotted.
An E2 is defined as a complete erection which can be followed by cup in which the penile tip is turned into a cup-like structure, whereby the glands flare out such that the penis is wider in its distal portion than its base. This final stage requires E2 and is probably a pre-requisite for ejaculation (13). Using, all the parameters one can obtain a reliable measure of the sexual activity of the tested rat.
Six to ten animals were tested in this paradigm for each variable. Control animals received ointment compositions without the modified VIP conjugate.

SMILES | No. of E2 | No. of cups
CCCC[C@H](NC(=O)[C@H](CCC(N)=O)NC(=O)[C@H](CCCCN)NC(=O)[C@H](CCCNC(=N)N)NC(=O)[C@H](CC(C)C)NC(=O)[C@H](CCCNC(=N)N)NC(=O)[C@@H](NC(=O)[C@H](Cc1ccc(O)cc1)NC(=O)[C@H](CC(N)=O)NC(=O)[C@H](CC(=O)O)NC(=O)[C@@H](NC(=O)[C@H](Cc1ccccc1)NC(=O)[C@@H](NC(=O)[C@H](C)NC(=O)[C@H](CC(=O)O)NC(=O)[C@H](CO)NC(=O)[C@H](Cc1c[nH]cn1)NC(=O)CC)C(C)C)[C@@H](C)O)[C@@H](C)O)C(=O)N[C@@H](C)C(=O)N[C@H](C(=O)N[C@@H](CCCCN)C(=O)N[C@@H](CCCCN)C(=O)N[C@@H](Cc1ccc(O)cc1)C(=O)N[C@@H](CC(C)C)C(=O)N[C@@H](CC(N)=O)C(=O)N[C@@H](CO)C(=O)N[C@H](C(=O)N[C@@H](CC(C)C)C(=O)N[C@@H](CC(N)=O)C(N)=O)[C@@H](C)CC)C(C)C [Prop Val Nle* Val] | 13.2 ± 4.6 | 45.8 ± 10
CCCCCCCCCCCCCCCCCC(=O)N[C@@H](Cc1c[nH]cn1)C(=O)N[C@@H](CO)C(=O)N[C@@H](CC(=O)O)C(=O)N[C@@H](C)C(=O)N[C@@H](C)C(=O)N[C@@H](Cc1ccccc1)C(=O)N[C@H](C(=O)N[C@@H](CC(=O)O)C(=O)N[C@@H](CC(N)=O)C(=O)N[C@@H](Cc1ccc(O)cc1)C(=O)N[C@H](C(=O)N[C@@H](CCCNC(=N)N)C(=O)N[C@@H](CC(C)C)C(=O)N[C@@H](CCCNC(=N)N)C(=O)N[C@@H](CCCCN)C(=O)N[C@@H](CCC(N)=O)C(=O)N[C@@H](CCCC)C(=O)N[C@@H](C)C(=O)N[C@H](C(=O)N[C@@H](CCCCN)C(=O)N[C@@H](CCCCN)C(=O)N[C@@H](Cc1ccc(O)cc1)C(=O)N[C@@H](CC(C)C)C(=O)N[C@@H](CC(N)=O)C(=O)N[C@@H](CO)C(=O)N[C@H](C(=O)N[C@@H](CC(C)C)C(=O)N[C@@H](CC(N)=O)C(N)=O)[C@@H](C)CC)C(C)C)[C@@H](C)O)[C@@H](C)O [St Ala* Nle* Val] (Stearoyl-HSDAAFTDNYTRLRKQ[Nle]AVKKYLNSILN-NH2) | 14 ± 1.0 | 36.5 ± 1.5
CCCCCCCCCCCCCCCCCC(=O)N[C@@H](Cc1c[nH]cn1)C(=O)N[C@@H](CO)C(=O)N[C@@H](CC(=O)O)C(=O)N[C@@H](C)C(=O)NCC(=O)N[C@@H](Cc1ccccc1)C(=O)N[C@H](C(=O)N[C@@H](CC(=O)O)C(=O)N[C@@H](CC(N)=O)C(=O)N[C@@H](Cc1ccc(O)cc1)C(=O)N[C@H](C(=O)N[C@@H](CCCNC(=N)N)C(=O)N[C@@H](CC(C)C)C(=O)N[C@@H](CCCNC(=N)N)C(=O)N[C@@H](CCCCN)C(=O)N[C@@H](CCC(N)=O)C(=O)N[C@@H](CCSC)C(=O)N[C@@H](C)C(=O)N[C@H](C(=O)N[C@@H](CCCCN)C(=O)N[C@@H](CCCCN)C(=O)N[C@@H](Cc1ccc(O)cc1)C(=O)N[C@@H](CC(C)C)C(=O)N[C@@H](CC(N)=O)C(=O)N[C@@H](CO)C(=O)N[C@H](C(=O)N[C@@H](CC(C)C)C(=O)N[C@@H](CC(N)=O)C(N)=O)[C@@H](C)CC)C(C)C)[C@@H](C)O)[C@@H](C)O [St Gly* Met Val] (Stearoyl-HSDAGFTDNYTRLRKQMAVKKYLNSILN-NH2) | 11.2 ± 1.1 | 30.3 ± 5.1
CCCCCCCCCCCCCCCCCC(=O)N[C@@H](Cc1c[nH]cn1)C(=O)N[C@@H](CO)C(=O)N[C@@H](CC(=O)O)C(=O)N[C@@H](C)C(=O)N[C@@H](CC(C)C)C(=O)N[C@@H](Cc1ccccc1)C(=O)N[C@H](C(=O)N[C@@H](CC(=O)O)C(=O)N[C@@H](CC(N)=O)C(=O)N[C@@H](Cc1ccc(O)cc1)C(=O)N[C@H](C(=O)N[C@@H](CCCNC(=N)N)C(=O)N[C@@H](CC(C)C)C(=O)N[C@@H](CCCNC(=N)N)C(=O)N[C@@H](CCCCN)C(=O)N[C@@H](CCC(N)=O)C(=O)N[C@@H](CCSC)C(=O)N[C@@H](C)C(=O)N[C@@H](CC(C)C)C(=O)N[C@@H](CCCCN)C(=O)N[C@@H](CCCCN)C(=O)N[C@@H](Cc1ccc(O)cc1)C(=O)N[C@@H](CC(C)C)C(=O)N[C@@H](CC(N)=O)C(=O)N[C@@H](CO)C(=O)N[C@H](C(=O)N[C@@H](CC(C)C)C(=O)N[C@@H](CC(N)=O)C(N)=O)[C@@H](C)CC)[C@@H](C)O)[C@@H](C)O [St Leu* Met Leu*] (Stearoyl-HSDALFTDNYTRLRKQMALKKYLNSILN-NH2) | 10.5 ± 1.5 | 29 ± 6
CCCCCCCCCCCCCCCCCC(=O)N[C@@H](Cc1c[nH]cn1)C(=O)N[C@@H](CO)C(=O)N[C@@H](CC(=O)O)C(=O)N[C@@H](C)C(=O)N[C@@H](CCCC)C(=O)N[C@@H](Cc1ccccc1)C(=O)N[C@H](C(=O)N[C@@H](CC(=O)O)C(=O)N[C@@H](CC(N)=O)C(=O)N[C@@H](Cc1ccc(O)cc1)C(=O)N[C@H](C(=O)N[C@@H](CCCNC(=N)N)C(=O)N[C@@H](CC(C)C)C(=O)N[C@@H](CCCNC(=N)N)C(=O)N[C@@H](CCCCN)C(=O)N[C@@H](CCC(N)=O)C(=O)N[C@@H](CCCC)C(=O)N[C@@H](C)C(=O)N[C@@H](CCCC)C(=O)N[C@@H](CCCCN)C(=O)N[C@@H](CCCCN)C(=O)N[C@@H](Cc1ccc(O)cc1)C(=O)N[C@@H](CC(C)C)C(=O)N[C@@H](CC(N)=O)C(=O)N[C@@H](CO)C(=O)N[C@H](C(=O)N[C@@H](CC(C)C)C(=O)N[C@@H](CC(N)=O)C(N)=O)[C@@H](C)CC)[C@@H](C)O)[C@@H](C)O [St Nle* Nle* Nle*] (Stearoyl-HSDA[Nle]FTDNYTRLRKQ[Nle]A[Nle]KKYLNSILN-NH2) | 9 ± 1 | 21.5 ± 3.5
CCCCCCCCCCCCCCCCCC(=O)N[C@@H](Cc1c[nH]cn1)C(=O)N[C@@H](CO)C(=O)N[C@@H](CC(=O)O)C(=O)N[C@@H](C)C(=O)N[C@@H](CCCC)C(=O)N[C@@H](Cc1ccccc1)C(=O)N[C@H](C(=O)N[C@@H](CC(=O)O)C(=O)N[C@@H](CC(N)=O)C(=O)N[C@@H](Cc1ccc(O)cc1)C(=O)N[C@H](C(=O)N[C@@H](CCCNC(=N)N)C(=O)N[C@@H](CC(C)C)C(=O)N[C@@H](CCCNC(=N)N)C(=O)N[C@@H](CCCCN)C(=O)N[C@@H](CCC(N)=O)C(=O)N[C@@H](Cc1ccccc1)C(=O)N[C@@H](C)C(=O)N[C@H](C(=O)N[C@@H](CCCCN)C(=O)N[C@@H](CCCCN)C(=O)N[C@@H](Cc1ccc(O)cc1)C(=O)N[C@@H](CC(C)C)C(=O)N[C@@H](CC(N)=O)C(=O)N[C@@H](CO)C(=O)N[C@H](C(=O)N[C@@H](CC(C)C)C(=O)N[C@@H](CC(N)=O)C(N)=O)[C@@H](C)CC)C(C)C)[C@@H](C)O)[C@@H](C)O [St Nle* Pbe* Val] (Stearoyl-HSDA[Nle]FTDNYTRLRKQFAVKKYLNSILN-NH2) | 9.5 ± 0.3 | 23.5 ± 1.3

Same assay, conditions: topical, 7 μg in 5% Sefsol and 20% isopropanol, FIG. 5

SMILES | number of E2, various modified conjugates compared to vehicle control
CCCCCCCCCCCC(=O)N[C@@H](Cc1c[nH]cn1)C(=O)N[C@@H](CO)C(=O)N[C@@H](CC(=O)O)C(=O)N[C@@H](C)C(=O)N[C@H](C(=O)N[C@@H](Cc1ccccc1)C(=O)N[C@H](C(=O)N[C@@H](CC(=O)O)C(=O)N[C@@H](CC(N)=O)C(=O)N[C@@H](Cc1ccc(O)cc1)C(=O)N[C@H](C(=O)N[C@@H](CCCNC(=N)N)C(=O)N[C@@H](CC(C)C)C(=O)N[C@@H](CCCNC(=N)N)C(=O)N[C@@H](CCCCN)C(=O)N[C@@H](CCC(N)=O)C(=O)N[C@@H](CCCC)C(=O)N[C@@H](C)C(=O)N[C@H](C(=O)N[C@@H](CCCCN)C(=O)N[C@@H](CCCCN)C(=O)N[C@@H](Cc1ccc(O)cc1)C(=O)N[C@@H](CC(C)C)C(=O)N[C@@H](CC(N)=O)C(=O)N[C@@H](CO)C(=O)N[C@H](C(=O)N[C@@H](CC(C)C)C(=O)N[C@@H](CC(N)=O)C(N)=O)[C@@H](C)CC)C(C)C)[C@@H](C)O)[C@@H](C)O)C(C)C [Lauroyl-Nle^17 -VIP, lauroyl-Nle^17 -VIP] | significantly higher number of E2 than control

Same assay, conditions: topical, 7 μg in 5% Sefsol and 20% isopropanol, FIG. 6

SMILES | number of cups, various modified conjugates compared to vehicle control
CCCCCCCCCCCC(=O)N[C@@H](Cc1c[nH]cn1)C(=O)N[C@@H](CO)C(=O)N[C@@H](CC(=O)O)C(=O)N[C@@H](C)C(=O)N[C@H](C(=O)N[C@@H](Cc1ccccc1)C(=O)N[C@H](C(=O)N[C@@H](CC(=O)O)C(=O)N[C@@H](CC(N)=O)C(=O)N[C@@H](Cc1ccc(O)cc1)C(=O)N[C@H](C(=O)N[C@@H](CCCNC(=N)N)C(=O)N[C@@H](CC(C)C)C(=O)N[C@@H](CCCNC(=N)N)C(=O)N[C@@H](CCCCN)C(=O)N[C@@H](CCC(N)=O)C(=O)N[C@@H](CCCC)C(=O)N[C@@H](C)C(=O)N[C@H](C(=O)N[C@@H](CCCCN)C(=O)N[C@@H](CCCCN)C(=O)N[C@@H](Cc1ccc(O)cc1)C(=O)N[C@@H](CC(C)C)C(=O)N[C@@H](CC(N)=O)C(=O)N[C@@H](CO)C(=O)N[C@H](C(=O)N[C@@H](CC(C)C)C(=O)N[C@@H](CC(N)=O)C(N)=O)[C@@H](C)CC)C(C)C)[C@@H](C)O)[C@@H](C)O)C(C)C [Lauroyl-Nle^17 -VIP, lauroyl-Nle^17 -VIP] | significantly higher number of cups than control
